1 molecule from patent publication US20160215045A1 (Eli Lilly, published 2016) can be followed below.

The target in experiment [1] is T1, human VEGFA165 (human, UniProt P15692 207-395).
T1 sequence: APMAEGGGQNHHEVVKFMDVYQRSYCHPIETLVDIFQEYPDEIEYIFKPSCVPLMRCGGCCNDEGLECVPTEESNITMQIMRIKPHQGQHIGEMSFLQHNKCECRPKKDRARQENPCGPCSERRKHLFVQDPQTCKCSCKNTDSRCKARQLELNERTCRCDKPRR
The experiment in a line: cell-based or functional assay.

For experiment [2], the target named is T2, human Ang2 (human, UniProt O15123 19-496).
T2 construct: Bought protein; also called hAng2; human angiopoietin-2
T2 sequence: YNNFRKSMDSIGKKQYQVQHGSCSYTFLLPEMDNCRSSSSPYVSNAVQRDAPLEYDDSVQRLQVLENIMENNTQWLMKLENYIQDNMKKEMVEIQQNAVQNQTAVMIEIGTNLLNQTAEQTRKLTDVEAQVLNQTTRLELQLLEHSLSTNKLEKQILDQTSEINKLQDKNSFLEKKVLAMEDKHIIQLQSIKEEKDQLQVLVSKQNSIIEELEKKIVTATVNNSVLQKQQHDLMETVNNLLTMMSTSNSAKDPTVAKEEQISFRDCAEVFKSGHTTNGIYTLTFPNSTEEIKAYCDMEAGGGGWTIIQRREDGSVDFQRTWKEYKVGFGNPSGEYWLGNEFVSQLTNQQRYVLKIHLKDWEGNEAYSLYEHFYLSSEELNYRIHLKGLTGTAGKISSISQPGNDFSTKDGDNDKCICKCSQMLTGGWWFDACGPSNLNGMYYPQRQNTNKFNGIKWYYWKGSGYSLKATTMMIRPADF
The experiment in a line: Biacore SPR at 25 C; compound captured on Protein A, hAng2 as analyte; 1:1 fit. Here is the method: (§1) Immobilization of soluble Protein A (Calbiochem #539202) on a CM4 (GE Healthcare #BR-1005-34) or CMS (GE Healthcare #BR-1000-99) is prepared using EDC/NHS amine coupling method (GE Healthcare #BR-1000-50). Briefly, the surfaces of all four flow cells is activated by injecting a 1:1 mixture of EDC/NHS for seven minutes at 10 μL/min After which, soluble protein A is diluted to 50-100 μg/mL in 10 mM acetate buffer, pH 4.5, and immobilized for seven minutes onto flow cell (Fc) 2, 3 or 4 at a flow rate of 10 μL/min. Unreacted sites still remaining on the chip surface are blocked with a seven minute injection of ethanolamine at 10 μL/min Running buffer is HBS-EP+ (GE Healthcare #BR-1006-69) with addition of 100 mM NaCl. Compound samples are prepared at 1 μg/mL by dilution into running buffer. […] Resultant data is processed using standard double-referencing and fit to a 1:1 binding model using Biacore 2000 Evaluation software, version 4.1, to determine the association rate (kₒₙ, M⁻¹s⁻¹ units), dissociation rate (koff, s⁻¹ units). Calculation of the equilibrium dissociation constant (KD) is calculated from the following relationship, KD=koff/kₒₙ, and is presented in molar units.
(In general: Surface plasmon resonance follows binding to a sensor surface in real time, without labels.)

Experiment [3] deals with T1, human VEGFA165. The experiment in a line: Biacore SPR at 25 C; compound captured on Protein A, hVEGFA165 as analyte; value called an upper limit. Here is the method: as §1
Experiment [4] has as its target T2, human Ang2. The experiment in a line: competition ELISA: blocking of biotinylated human Ang2 binding to plate-coated human Tie2-Fc. On the technique in general: ELISA stands for enzyme-linked immunosorbent assay.
Experiment [5] addresses T1, human VEGFA165. The experiment in a line: KinExA kinetic exclusion assay at 37 C, solution equilibrium with hVEGFA165. An excerpt: (§2) A KinExA 3200 instrument is used to measure binding kinetics to human VEGFA165. Briefly, human VEGFA165 is covalently coupled to NHS-activated sepharose beads (GE Healthcare #17-0906-01) and the binding of free Mab to the conjugated beads is detected on the KinExA 3200. […] (depending on the temperature analyzed) in Casein Blocking Buffer (ThermoFisher #37528). […] It follows that the relative intensity of signal generated in these steps is proportional to the degree of free/uncomplexed compound present in each solution tested. The resultant composite set of fluorescent intensities is plotted as a function of the concentration of human VEGFA165 present in each discrete sample and fit using the N-curve analysis software (KinExA) to a standard two state binding model to determine KD for the given MOI. Statistical confidence is reported by calculation of the 95% confidence intervals.

Experiment [6] addresses T1, human VEGFA165. As to the kind of experiment: Biacore SPR at 25 C; compound captured on Protein A, hVEGFA165 as analyte; 1:1 fit; off-rate too slow to quantitate accurately. Here is the method: as §1
The target in experiment [7] is T1, human VEGFA165. As to the kind of experiment: KinExA kinetic exclusion assay at 25 C, solution equilibrium with hVEGFA165.
Excerpt: as §2

Experiment [8] deals with T1, human VEGFA165. The experiment in a line: Biacore SPR at 25 C; compound captured on Protein A, hVEGFA165 as analyte; 1:1 fit. Here is the method: as §1

Bounds are passed on as bounds.

B1: Compound A (bispecific antibody, human IgG4 S228P, kappa, F234A L235A)
heavy: [about 100 residues not spelt out]DPSDSSSWYFAFDIWGQGTTVTVSSASTKGPSVFPLAPCSRSTSESTAALGCLVKDYFPEPVTVSWNSGALTSGVHTFPAVLQSSGLYSLSSVVTVPSSSLGTKTYTCNVDHKPSNTKVDKRV[human IgG4 Fc with S228P F234A L235A (EU numbers) not spelt out]GGGSGGGGSGGGGSQVQLVQSGAEVKKPGASVKVSCKASGYSFTDYNMVWVRQAPGQCLEWMGYIDPYNGGTGYNQKFEGRVTMTTDTSTSTAYMELRSLRSDDTAVYYCARTRDRYDVWYFDVWGQGTLVTVSSGGGGSGGGGSGGGGSGGGGSGGGGSDIQMTQSPSSVSASVGDRVTITCKASQDVYIAVAWYQQKPGKAPKLLIYWASTRDTGVPSRFSGSGSGTDFTLTISSLQPEDFATYYCHQYSSYPPTFGCGTKVEIK
light: DIVMTQSPATLSVSPGQRATLSCRASQNIRNNLAWYQQKRGQAPRLLIYGASTRATGIPDRFSGSGSGADFTLTISKLEPEDFAVYYCQQYGSSPRTFGQGTKVDIKRTVAAPSVFIFPPSDEQLKSGTASVVCLLNNFYPREAKVQWKVDNALQSGNSQESVTEQDSKDSTYSLSSTLTLSKADYEKHKVYACEVTHQGLSSPVTKSFNRGEC
notes: also called Mab-scFv fusion
For B1, the “IC50 for inhibition of VEGFA165 induced proliferation of ECFC (3H thymidine)” value with human VEGFA165 [1] is 1.18 nM. Besides, the “IC50 for inhibition of VEGFA induced cord formation in ADSC/ECFC co-culture (total tube area)” value with human VEGFA165 [1] worked out at 1.68 nM. Also, the Kd was 0.136 nM with human Ang2 [2], no more than 0.0832 nM with human VEGFA165 [3], 0.084 nM with human VEGFA165 [5] and 0.0266 nM with human VEGFA165 [7]. Besides, the results for the koff with human Ang2 [2] and with human VEGFA165 [6] were 3.2e-05 s⁻¹ and 0.000203 s⁻¹, respectively. In addition, the values for the kon with human Ang2 [2] and with human VEGFA165 [8] were 240000 M⁻¹ s⁻¹ and 2.44e+06 M⁻¹ s⁻¹, respectively. Moreover, in the experiment with human Ang2 [4], the 50% inhibitory concentration (IC50) worked out at 0.118 nM.

By Kd is commonly meant a measure of binding affinity in units of concentration. Usually koff stands for the first-order rate constant of dissociation. Low values mean a long-lived complex, high ones a short-lived complex. One may read the kon as the rate constant with which the complex forms. The low end stands for slower complex formation, the high end for faster complex formation. As usually defined, the IC50 is the point on the concentration scale where inhibition reaches its midpoint. Read a high IC50 as weaker potency.
